Measurements: PubChem BioAssay AID1240 (Sanford-Burnham Center for Chemical Genomics, 2008)
In all, about 50,000 compounds went through this assay and about 800 (1.6%) showed an effect of 50% or more. This is one part of the list.

Target: Bcl-2-like protein 10 (Homo sapiens) (UniProt Q9HD36)
Assay: Phenotype converters, Bcl-B/TR3 peptide binding displacement, primary biochemical FP (AID 1240);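 further: 0% = Bcl-B with tracer peptide and DMSO and 100% = tracer peptide lacking Bcl-B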
Conditions: GST-Bcl-B / FITC-TR3 peptide fluorescence polarization; stronger effect = higher value; compound at 3.75 mg/L

Sequence of UniProt Q9HD36 (Q9HD36 whole entry, looked up): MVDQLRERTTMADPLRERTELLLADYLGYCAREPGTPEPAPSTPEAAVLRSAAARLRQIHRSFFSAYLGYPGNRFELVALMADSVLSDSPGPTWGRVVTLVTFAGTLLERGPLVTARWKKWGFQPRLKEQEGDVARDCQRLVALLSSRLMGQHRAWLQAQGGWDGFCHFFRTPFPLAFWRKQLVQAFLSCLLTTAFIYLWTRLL

| SMILES | displacement [%] |
| --- | --- |
| Cc1ccc2oc(-c3cc(NC(=O)c4ccc5c(c4)OCCO5)ccc3O)nc2c1 | 7.4 |
| CCOC(=O)/C(C#N)=C1\C(Cl)=C(Cl)c2ccccc21 | 11.2 |
| COC(=O)c1ccc(COc2ccc(-c3ccccc3)cc2)o1 | 6.1 |
| CC(C)(C)C(=O)/C=C/c1ccc(-n2nncc2C(C)(C)C)cc1 | -10.2 |
| O=C(Nc1nc(-c2ccccc2)c(-c2ccccc2)s1)c1ccc(S(=O)(=O)N2CCCC2)cc1 | 9.2 |
| CC(C)(C)c1ccc(S(=O)(=O)/N=C2\C=CC(=O)C(Br)=C2)cc1 | -8.3 |
| COc1cc(/C=C2\SC(=S)N(C(C(=O)O)C(C)C)C2=O)ccc1O (configuration not stated) | -126 |
| O=C(O)/C=C/c1cccc(NS(=O)(=O)c2cccs2)c1 | -13 |
| Cc1cc(Cl)ccc1OCC(O)CN1CCN(c2ccccc2)CC1 (configuration not stated) | -3.7 |
| Cc1c(NC(=O)c2ccccc2N)cccc1C(=O)O | 1.7 |
| Cc1ccc2c(Cl)c(C(=O)N3CCc4ccccc4C3)sc2c1 | 8.5 |
| O=C(CCCOc1ccccc1)Nc1cccc(Br)c1 | -2.5 |
| CCC(Oc1ccccc1)C(=O)N1CCN(c2ccc(Cl)cc2)CC1 (configuration not stated) | -1.6 |
| Cc1cc2ncn(CC(O)COc3ccc4ccccc4c3)c2cc1C (configuration not stated) | 13.8 |
| S=c1[nH]nc(-c2ccc(Cl)cc2)n1-c1ccc(Cl)cc1 | -3.9 |
| COc1ccc(C2/C(=C(/O)c3ccccc3)C(=O)C(=O)N2c2cccc([N+](=O)[O-])c2)cc1OC (configuration not stated) | 3.3 |
| c1ccc(CN=C2CCCc3ccccc3N2)cc1 | 4.9 |
| CC1CN(c2nc(-c3ccc(Cl)cc3)nc3ccccc23)CC(C)O1 (configuration not stated) | 5.9 |
| C=C(C)COc1ccc2ccc(=O)oc2c1 | 11.4 |
| CCC(=O)N1c2ccccc2NC2=C(C(=O)CC(C)(C)C2)C1c1ccc([N+](=O)[O-])cc1 (configuration not stated) | 21.6 |
| COc1cc(C(=O)Nc2ccc(C(N)=O)cc2)cc(OC)c1OC | -4.2 |
| CC(=O)Nc1cccc(NS(=O)(=O)c2ccccc2)c1 | 9.1 |
| O=C(O)c1ccccc1-c1ccccc1C(=O)NCCc1ccccc1 | 7.8 |
| Fc1cnc(NN=Cc2ccco2)nc1N1CCOCC1 | -13.1 |

| SMILES | displacement [%] |
| --- | --- |
| CC1=C(C(=O)OC2CCCC2)C(c2ccc(Cl)cc2)NC(=O)N1 (configuration not stated) | 7.3 |
| O=C1C2C3C=CC(C3=C3CCCCC3)C2C(=O)N1c1ccc(Cl)c(Cl)c1 (configuration not stated) | -18.7 |
| Cc1cc(O)cc2c(=O)c3ccccc3sc12 | 22.7 |
| COc1ccc(OC)c(/C=C/C(=O)Nc2ccc(C)c(Cl)c2)c1 | 11.8 |
| C=CCn1c(SCC(=O)c2ccc(Br)cc2)nc2sc3c(c2c1=O)CCN(C)C3 | 18.5 |
| COc1ccc(C(=O)NC(OCc2ccccc2)C(Cl)(Cl)Cl)cc1OC (configuration not stated) | -1.1 |
| O=C(Nc1nc2ccccc2n1CCOc1ccccc1)c1ccccc1 | -5.1 |
| CN(C)c1ccc(/C=N/NC(=O)c2ccc(O)cc2O)cc1Br | 13.1 |
| COc1ccc(CCN=C(C)C2=C(O)COC2=O)cc1OC | 6.1 |
| CCCc1cc(=O)oc2cc(OCc3ccccc3Cl)ccc12 | 21.4 |
| CCOc1ccc(-c2nc3sc4c(c3c(=O)[nH]2)CCCC4)cc1OCC | 1.2 |
| COc1cc(C2CC(=O)NC(C)=C2C(=O)OC(C)C)c(Br)c(OC)c1OC (configuration not stated) | -3.5 |
| COc1ccc(S(=O)(=O)N2CCCC2)cc1Br | 4.5 |
| CC(=O)N1N=C2CCCCC2C1C(C)C (configuration not stated) | 7.8 |
| CN(C)c1ccc(NC(=O)CCC2CCCCC2)cc1 | 30.7 |
| OCCNCCCCOc1cccc(Cl)c1 | 7.4 |
| COc1cccc(/C=C2\CC/C(=C\c3cccc(OC)c3OC)C2=O)c1OC | 3.7 |
| CCOC(=O)Cc1csc(NC(=O)COc2ccccc2[N+](=O)[O-])n1 | -2 |
| CC(=O)C1=C(C)NC(C)=C(C(C)=O)C1c1cccs1 | -20.1 |
| Cc1nnc(N/N=C/c2cccc([N+](=O)[O-])c2)[nH]c1=O | 4.8 |
| Fc1ccccc1OCCOCCOc1ncnc2ccccc12 | -4 |
| O=C(c1ccccc1)N1CCN(Cc2cccc(Oc3ccccc3)c2)CC1 | -8.8 |
| O=C(O)C1CC=CCC1C(=O)Nc1cccc(O)c1 (configuration not stated) | 1.6 |
| COc1ccc(N2C(=O)NC(=O)/C(=C\c3ccc(OC)cc3C)C2=O)cc1 | 0.7 |

| SMILES | displacement [%] |
| --- | --- |
| CCOc1ccc(C(=O)Nc2ccc(NC(=O)CC)cc2)cc1Cl | 13.6 |
| Cc1cccc(COc2ccc3c(c2)oc(=O)c2ccccc23)c1 | 6.2 |
| O=C(NCCc1ccccc1)C(=O)Nc1cccc(Cl)c1 | 5.5 |
| CC(=O)c1c(N2CCOCC2)nc(=S)n(-c2ccc([N+](=O)[O-])cc2)c1C | -7.4 |
| CCN(CC)C(=O)c1sc(NC(=O)c2ccc(Cl)cc2)c(C#N)c1C | -4.4 |
| O=C(Nc1cccc(Oc2ccc3c(c2)C(=O)N(c2ccccc2)C3=O)c1)c1cccc([N+](=O)[O-])c1 | 12.7 |
| CCC(=O)Nc1cccc(NC(=O)c2ccc([N+](=O)[O-])cc2)c1 | 16.4 |
| O=C1/C(=C/c2cccc(O)c2)SC(=S)N1c1cccc(Br)c1 | 16.4 |
| CC/C(=C1/C(=O)N(c2nc3ccccc3s2)N=C1C(F)(F)F)N1CCOCC1 | -7 |
| Cc1cc(Br)cc(/C=N/NC(=O)c2cncc(Br)c2)c1O | 8.9 |
| O=C(NC(=O)c1ccncc1)NC(c1ccccc1)c1ccccc1 | 0.6 |
| CCCN(CCC)C(=O)c1ccccc1NC(=O)c1ccccc1Cl | 10.7 |
| COc1ccc(CCNC(=O)C(=O)Nc2ccc(OC)c(Cl)c2)cc1 | -7 |
| C=C(C)Cn1c(-c2ccc(Br)cc2)n[nH]c1=S | -6.1 |
| CCOC(=O)C(C)P(=O)(c1ccccc1)c1ccccc1 (configuration not stated) | 11.9 |
| CC1CN(c2ccc(C(F)(F)F)cc2[N+](=O)[O-])CCN1S(C)(=O)=O (configuration not stated) | 8.9 |
| C=CCN1C(=O)C(Cc2ccc(OC)cc2)SC1=Nc1ccc(C(=O)O)cc1 (configuration not stated) | -10.3 |
| Cc1ccc(-c2nc3ccc(C)cn3c2NC(=O)c2ccco2)cc1 | 9.9 |
| CCCOc1ccc(C2Nc3ccccc3NC3=C2C(=O)CC(c2ccc(OC)c(OC)c2)C3)cc1 (configuration not stated) | -1.6 |
| COc1ccc(Cn2c(SC)nc(O)cc2=O)cc1 | -2 |
| CC(=O)Nc1nnc(Cc2ccc(Cl)cc2)s1 | -1.6 |
| Cc1c(Cl)cccc1NC(=O)C(=O)NC1CC(C)(C)NC(C)(C)C1 | -0.4 |
| CCOc1ccc2ccccc2c1/C=N/NC(=O)CN1CCOCC1 | -3.9 |
| Cc1ccc(NC(=O)c2cc(Br)ccc2Cl)c([N+](=O)[O-])c1 | 12.1 |
